Hit rate of the full screen: of about 420,000 compounds, about 50,000 (12%) were called active. This list was built around the results that the source calls inconclusive (neither active nor inactive); the mix of calls is not that of the screen. The call rests on the fitted dose curve; in most records, active means well fitted inhibition curve with a large enough effect; inconclusive means small, poorly fitted or top-dose-only effect; inactive means flat fitted curve, though single readings scatter. No potency is given beside an inconclusive call; the fits are too rough.
Assay: qHTS for Inhibitors of human tyrosyl-DNA phosphodiesterase 1 (TDP1): qHTS in cells in presence of CPT; further: nearly all actives have a fitted effect of over 55% in size
Conditions: chicken DT40 Tdp1-/-;hTDP1 cells + 20 nM CPT, ATP luminescence, 48 h; activity change, negative = growth inhibition: at 46.2 µM (top of the series) unless noted
In short: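 Chicken DT40 Tdp1-/- cells stably complemented with human TDP1 were seeded at 400 cells/well in medium containing 20 nM camptothecin, exposed to pin-transferred compounds, and grown at 37 °C for at least 48 hr. Viability was read as ATP luminescence.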
On the % scale 0 is the no-effect control and ±100 the full control effect; potency means the concentration at half of the fitted maximal effect; tags describe the fitted curve by direction and shape.

Compound | Potency | activity change, negative = growth inhibition
Cc1ccc(Oc2nc3ccccn3c(=O)c2/C=C(\C#N)c2nc3ccccc3s2)c(C)c1 | active: 11.6 µM | 
CCN(CC)c1cc(C)c2cc(NC(=O)/C=C/c3ccccc3OC(C)C)ccc2n1 | inconclusive [inhibitor, single point] | 
CCN(CC)c1ccc(NS(=O)(=O)c2ccc(-c3coc(C)n3)cc2)c(C)c1 | active: 16.4 µM | 
CCN(CC)S(=O)(=O)c1ccc(C(=O)Nc2cc(S(=O)(=O)N3CCOCC3)ccc2O)cc1 | inactive | 
CCOc1ccc(-c2cc(C(=O)NCCc3ccccc3)c3c(-c4ccc(C)cc4)[nH]nc3n2)cc1 | active: 11.6 µM | 
CCc1nnc(NC(=S)Nc2ccccc2)s1 | active: 5.8 µM | 
CC(C)Oc1ccc(Br)cc1/C=N\NC(N)=S | inconclusive [inhibitor, single point] | 
O=C(NN1CCOCC1)c1cn(-c2ccccc2)nc1-c1cccs1 | inconclusive [inhibitor, partial curve] | 
O=C(Cn1c(=O)n(-c2ccccc2)c(=O)c2c3c(sc21)CCCC3)Nc1ccccc1 | inconclusive [inhibitor, partial curve, poor fit] | 
O=C(N/N=C/c1ccco1)c1ccc(OCc2ccccc2)cc1 | inactive | 
CCN1CCN(CCNC(=O)c2ccc(/C=C3/Sc4ccccc4N(Cc4ccccc4C)C3=O)cc2)CC1 | inconclusive [inhibitor, single point] | 
Cc1cc(-c2ccc(C)c(S(=O)(=O)N3c4ccccc4CC3C)c2)on1 (configuration not stated) | active: 18.4 µM | 
CCCc1cc(=O)n2[nH]c(C)c(-c3ccccc3OC)c2n1 | inactive | 
Cc1ccccc1Cn1nc(C)c(NC(=O)c2cc(-c3cccs3)on2)c1C | inconclusive [inhibitor, single point] | 
Cc1nn(C)c2c1c(C(F)(F)F)cc(=O)n2CC(=O)N1CCN(c2ccccc2F)CC1 | inconclusive [inhibitor, single point] | 
COc1ccc(NC(=S)N2CCC(c3nc4ccccc4o3)CC2)c(OC)c1 | inconclusive [inhibitor, single point] | 
COc1cccc(/C=N/NC(=O)c2ccccc2)c1OS(=O)(=O)c1ccccc1 | inconclusive [inhibitor, single point] | 
Cc1ccc(C)c(N(CC(=O)NN=C2CCN(C)CC2)S(=O)(=O)c2ccccc2)c1 | inactive | 
CCn1nc(C(=O)Nc2ccccc2N2CCCC2)c2ccccc2c1=O | inconclusive [inhibitor, single point] | 
CCC(C)c1ccc(NC(=S)Nc2ccc(OC)c(OC)c2)cc1 (configuration not stated) | inconclusive [inhibitor, single point] | 
Cc1cc(Cl)nc(Cl)c1C(=O)NC(=O)NCCC(C)C | inactive | 
Cc1ccc(C2C(C#N)=C(N)N(c3cccnc3)C3=C2C(=O)CCC3)s1 (configuration not stated) | inconclusive [inhibitor, partial curve, poor fit] | 
CC(=O)N1CCc2c(sc3c2c(=O)n(-c2cccc(Cl)c2)c(=O)n3Cc2ccc(F)cc2Cl)C1 | inconclusive [inhibitor, single point] | 

Compound | Potency | activity change, negative = growth inhibition
Cc1cc(NC(=O)CCCn2cc([N+](=O)[O-])cn2)n(Cc2ccc(F)cc2)n1 | inactive | 
Cc1cccc(/N=C/c2nc(-c3ccccc3Br)oc2O)n1 |  | inconclusive: -30.8% [inhibitor]
COc1cccc(-c2nnc(-c3ccc(C(F)(F)F)cc3)o2)c1 |  | inconclusive: -32.9% [inhibitor]
CCCCc1nc(S(=O)(=O)c2ccc(Cl)cc2)c(N2CCOCC2)o1 | inactive | 
COc1ccc(S(=O)(=O)Nc2ccc(Nc3ccccc3)cc2)cc1 | active: 20.6 µM | 
CCCN(CCC)S(=O)(=O)c1ccc(C(=O)Nc2nc3c(s2)CCc2ccccc2-3)cc1 | active: 16.4 µM | 
COc1cc(OC)c2ccc(=O)oc2c1C(CC(=O)N1CCCC1)c1ccc2c(c1)OCO2 (configuration not stated) | inconclusive [inhibitor, single point] | 
O=C(N/N=C/c1cc([N+](=O)[O-])ccc1O)c1ccc(COc2ccc3c(c2)CCC3)o1 | active: 2.59 µM | 
O=S(=O)(Nc1ccc(Cl)cc1)c1cccc2nsnc12 | inactive | 
Cc1ccc(NC(=O)c2nc[nH]c2C(=O)NCCCCCCNC(=O)c2[nH]cnc2C(=O)Nc2ccc(C)cc2)cc1 | inconclusive [inhibitor, single point] | 
O=C(Oc1cccc2c(O)cccc12)c1ccccc1 | inconclusive [inhibitor, partial curve] | 
O=C(CNc1ccc2ccccc2c1)N/N=C/c1ccc(C(=O)O)cc1 | inactive | 
O=C(Nc1cc(S(=O)(=O)N2CCCCC2)ccc1Cl)c1ccccc1NS(=O)(=O)c1ccc(F)cc1 | active: 5.17 µM | 
Cc1cccc(C(=O)N2CCC(=O)N(C(COCc3cccc(C(F)(F)F)c3)Cc3ccccc3)CC2)c1 (configuration not stated) | active: 29.1 µM | 
CCNc1sc(C(=O)c2cccs2)c(N)c1-c1nc2ccccc2s1 | inconclusive [inhibitor, single point] | 
COC(=O)C1=C[C@@H](C(=O)OC)[C@@H]2C3=C(C(=O)[C@@]2(C)NC(=O)c2ccccc2)[C@H](C)n2c(=O)n(C)c(=O)n2[C@@H]3C1 | inactive | 
O=C(Cc1ccc(F)cc1)Nc1cccc(S(=O)(=O)N2CCCC2)c1 | inactive | 
C=C1CCC[C@]2(C)C[C@H]3OC(=O)C(CNCC(OC)OC)[C@H]3CC12 (some centres not stated) | inconclusive [inhibitor, single point] | 
Cc1cccc2cc(C#N)c(NCCCNS(=O)(=O)c3ccc(Cl)cc3)nc12 | active: 18.4 µM | 
COc1ccc(CN(C)C(=O)c2[nH]c(C)c(C(C)=O)c2C)c(OC)c1OC | inconclusive [inhibitor, single point] | 
CCOC(=O)CSc1nnc2n(-c3ccccc3)c(=O)c3c4c(sc3n12)COC(C(C)C)C4 (configuration not stated) | inconclusive [inhibitor, single point] | 
COc1ccc(C(=O)[C@H]2[C@H]3C(=O)N(c4ccccc4)C(=O)[C@H]3C3C=CC=NN32)cc1 (some centres not stated) | inconclusive [inhibitor, single point] | 
O=C(N/N=C\c1cc(Br)cs1)C1COc2ccccc2O1 (configuration not stated) | inconclusive [inhibitor, single point] | 

Compound | Potency | activity change, negative = growth inhibition
Oc1ccccc1C1NN=C(c2ccccc2)S1 (configuration not stated) | inactive | 
CC(C(=O)NCCc1ccc(Cl)cc1)n1c(=O)c2cccn2c2cccnc21 (configuration not stated) | inconclusive [inhibitor, single point] | 
CCCCOc1ccc(CSc2n[nH]c(C)n2)cc1 | inconclusive [inhibitor, full curve] | 
CCc1ccc(CN(C)C(=O)c2cc(=O)c3ccccc3o2)cc1 | inconclusive [inhibitor, single point] | 
O=C(Nc1cccnc1)c1ccc(Cl)c(S(=O)(=O)N2CCCCC2)c1 | inconclusive [inhibitor, partial curve] | 
COc1cccc(/C=C/C(=O)OCC(=O)c2c[nH]c3ccccc23)c1OC | inconclusive [inhibitor, single point] | 
CCC(C)C(NC(=O)c1ccccc1NC(=O)c1ccc(OC)cc1)C(=O)NCCCn1ccnc1 (configuration not stated) | inactive | 
CCCCN(CC)CCNC(=O)C1CCN(c2nnc(C)c3c(C)n(-c4ccc(C)cc4)nc23)CC1 | inconclusive [inhibitor, single point] | 
CSCCC(NS(=O)(=O)c1ccc(C)cc1)C(=O)NC1CCCCCC1 (configuration not stated) | inconclusive [inhibitor, single point] | 
c1ccc2sc(N3CCN(Cc4nnnn4CC4CCCO4)CC3)nc2c1 (configuration not stated) | inconclusive [inhibitor, partial curve, poor fit] | 
CCCCCC(=O)N1C[C@@H](O)[C@H](n2cc(COC(=O)c3ccccc3)nn2)C[C@@H]1c1ccccc1 | inconclusive [inhibitor, single point] | 
COc1ccc(-c2nc(C)sc2CC(=O)O)cc1 | inactive | 
Cc1ccc(Cn2ncc3c(NCCN(C)C)ncnc32)cc1 | inactive | 
Cc1ccc(Cc2c(C)nc3c(-c4ccccc4)c(C)[nH]n3c2=O)cc1 | active: 6.51 µM | 
CCOc1ccccc1CNC(=O)C1CCN(C(=O)c2sccc2-n2cccc2)CC1 | inconclusive [inhibitor, partial curve] | 
O=C1CCCN1CCCNc1ncnc2c1[nH]c1ccc(Cl)cc12 | inconclusive [inhibitor, partial curve, poor fit] | 
C/C(=N\Nc1nc(-c2ccc(C)cc2C)cs1)c1cc2ccccc2oc1=O | inconclusive [inhibitor, single point] | 
CC(C)N(Cc1ccccc1)C(=O)c1ccc2nsnc2c1 | inconclusive [inhibitor, single point] | 
COc1ccc(C(C#N)(CC(=O)O)c2cnccn2)cc1OC (configuration not stated) |  | inconclusive: -33.6% [inhibitor]
COc1ccc(CCNC(=O)C2CC3Cn4c(nc5ccccc54)C3N2Cc2ccccc2)cc1 (configuration not stated) | inconclusive [inhibitor, single point] | 
CO[C@@H]1[C@@H](OC2OC(C)C(OC3CC(C)(O)C(OC(=O)CC(C)C)C(C)O3)C(N(C)C)C2O)[C@@H](CC=O)C[C@@H](C)C(=O)/C=C\C2O[C@H]2C[C@@H](C)OC(=O)C[C@H]1OC(C)=O (some centres not stated) | active: 5.62 µM | 
